Some of the results follow.
B1: PhoQ; a variant is named by its letters at X, in order, P23837 (parent)
chain: MKKLLRLFFPLSLRVRFLLATAAVVLVLSLAYGMVALIGYSVSFDKTTFRLLRGESNLFYTLAKWENNKLHVELPENIDKQSPTMTLIYDENGQLLWAQRDVPWLMKMIQPDWLKSNGFHEIEADVNDTSLLLSGDHSIQQQLQEVREDDDDAEMTHSVAVNVYPATSRMPKLTIVVVDTIPVELKSSYMVWSWFIYVLSANLLLVIPLLWVAAWWSLRPIEALAKEVRELEEHNRELLNPATTRELTSLVRNLNRLLKSERERYDKYRTTLTDLTHSLKTPLXXLQXXLRSLRSEKMSVSDAEPVMLEQISRISQQIGYYLHRASMRGGTLLSRELHPVAPLLDNLTSALNKVYQRKGVNISLDISPEISFVGEQNDFVEVMGNVLDNACKYCLEFVEISARQTDEHLYIVVEDDGPGIPLSKREVIFDRGQRVDTLRPGQGVGLAVAREITEQYEGKIVAGESMLGGARMEVIFGRQHSAPKDE

Variants of: B1
Experiment: enrichment ratio after two sorts for PhoP signalling (ratio (wild type AVST 3.29)); higher = more functional
Conditions: with PhoP (E. coli)

Row | Variant | enrichment ratio
1 | LYHY | ≤ 0.25
2 | HMRF | ≤ 0.25
3 | PWPF | ≤ 0.25
4 | PMHD | ≤ 0.25
5 | HEPC | ≤ 0.25
6 | EHHG | ≤ 0.25
7 | LSPS | ≤ 0.25
8 | YPID | ≤ 0.25
9 | FEET | ≤ 0.25
10 | PSDT | ≤ 0.25
11 | EYPA | ≤ 0.25
12 | LGEV | ≤ 0.25
13 | LHMH | ≤ 0.25
14 | VPAR | ≤ 0.25
15 | WNHS | ≤ 0.25
16 | MFGI | ≤ 0.25
17 | SFLL | 3.56
18 | RYSE | ≤ 0.25
19 | EYRS | ≤ 0.25
20 | EKWV | ≤ 0.25
21 | GVPW | ≤ 0.25
22 | TLVG | ≤ 0.25
23 | VSDS | ≤ 0.25
24 | SMGN | 2.13
25 | DHRQ | ≤ 0.25
26 | YHVA | ≤ 0.25

Row | Variant | enrichment ratio
27 | LTGM | ≤ 0.25
28 | HWPE | ≤ 0.25
29 | WHCD | ≤ 0.25
30 | TWMQ | ≤ 0.25
31 | MPLQ | ≤ 0.25
32 | IREV | ≤ 0.25
33 | YSWP | ≤ 0.25
34 | MYYT | ≤ 0.25
35 | QLCV | ≤ 0.25
36 | TALM | 15.3
37 | VEPI | ≤ 0.25
38 | TWYT | ≤ 0.25
39 | LDQA | ≤ 0.25
40 | LSVP | ≤ 0.25
41 | EVFW | ≤ 0.25
42 | TWAT | ≤ 0.25
43 | PGGM | ≤ 0.25
44 | HFHG | ≤ 0.25
45 | PWVM | ≤ 0.25
46 | SQRV | ≤ 0.25
47 | IDEL | ≤ 0.25
48 | PAQD | ≤ 0.25
49 | RAPV | 0.874
50 | WCGR | ≤ 0.25
51 | EYGL | ≤ 0.25
52 | RIYF | ≤ 0.25

Row | Variant | enrichment ratio
53 | GTNY | ≤ 0.25
54 | RIAG | ≤ 0.25
55 | GPAA | ≤ 0.25
56 | VAMH | ≤ 0.25
57 | FCST | ≤ 0.25
58 | YCHF | ≤ 0.25
59 | KMCR | ≤ 0.25
60 | RKIG | ≤ 0.25
61 | EEQS | ≤ 0.25
62 | AEYH | ≤ 0.25
63 | WCFA | ≤ 0.25
64 | GTIM | 2.86
65 | VDRS | ≤ 0.25
66 | PYTH | ≤ 0.25
67 | DVIQ | ≤ 0.25
68 | AFCF | ≤ 0.25
69 | SQGW | ≤ 0.25
70 | MQHD | ≤ 0.25
71 | NAGD | ≤ 0.25
72 | FAGM | ≤ 0.25
73 | GEGP | ≤ 0.25
74 | QAWR | ≤ 0.25
75 | EANG | ≤ 0.25
76 | FCDW | ≤ 0.25
